# Test results: patent publication US20220403048A1, “BINDING MOLECULES TO ARGINASE II [ARG2]” (Cancer Research Technology Limited, priority 2019, published 2022)
# T1: trimeric human ARG2 (Homo sapiens, UniProt P78540)
# T1 construct: human ARG2 (aa23-354); His10 (C); made in house; host or cells: E. coli BL21 (DE3)
# T1 sequence (P78540 23-354): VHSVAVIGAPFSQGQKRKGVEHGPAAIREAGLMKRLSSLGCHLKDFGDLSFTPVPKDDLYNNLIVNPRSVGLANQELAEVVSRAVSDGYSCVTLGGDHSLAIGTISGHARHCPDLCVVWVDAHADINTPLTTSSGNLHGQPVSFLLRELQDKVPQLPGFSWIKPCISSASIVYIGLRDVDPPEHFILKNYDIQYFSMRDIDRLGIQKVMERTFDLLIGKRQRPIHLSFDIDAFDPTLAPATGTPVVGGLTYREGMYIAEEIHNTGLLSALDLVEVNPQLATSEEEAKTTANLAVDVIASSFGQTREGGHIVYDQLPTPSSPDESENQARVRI
# B1: C0020187: anti-ARG2 antibody, parent lead isolation clone, VH SEQ ID NO: 12, VL SEQ ID NO: 17 (antibody, listed as Homo sapiens, V domains shown)
# VH: [about 100 residues not given here]LRADLGLYMDLWGRGTLVTVSS
# VL: QSVLTQPPSVSAAPGQKVTISCSGSSSNIGNHYVSWYQQLPGTAPKLLIYDNSERPSGIPDRFSGSKSGTSATLGITGLQTGDEADYYCGTWDSSLSALVFGGGTKLTVL
# modifications: C0020187
# Molecular target: T1, trimeric human ARG2
# Assay: Human trimeric ARG2 enzyme inhibition assay (urea production)
# Type: biochemical
# Experimental: Unpurified anti-ARG2 scFv fragments from periplasmic preparations were screened in an ARG2 enzyme inhibition assay using a Pherastar plate reader (BMG Labtech, Germany). In this assay, the ability of unpurified scFv to inhibit the enzymatic activity of trimeric ARG2 was determined by measuring the production of urea, the product of L-arginine turnover by ARG2.
# Selection outputs were screened as unpurified bacterial periplasmic extracts containing scFv, prepared in 200 mM TES buffer pH 7.4, 0.5 mM EDTA and 0.5 M sucrose. 10 μl of unpurified scFv were added to a Greiner Bio-One® 384 well assay plate (Greiner Bio-one, UK; cat: 781901). […]
# Urea was detected by the simultaneous addition of equal volumes of O-Phthaldialdehyde (1.5 mM O-Phthaldialdehyde, 7% H2SO4, 0.03% Brij L23) and N-(1-Napthyl)ethylenediamine (1.66 mM N-(1-Napthyl)ethylenediamine, 81 mM Boric acid, 21% H2SO4, 0.03% Brij L23) followed by an 18 minute incubation at room temperature before the colorimetric product was quantified on the Pherastar by measuring absorbance at 505 nm. […]
# Data were analysed by calculating % maximum (max) control for each sample using the 505 nm absorbance data. % max control was determined according to equation 2. […]
# Data were again analysed by calculating % Max control values for each sample. […]
molecule,measurement,setting,value
B1,inhibition of the activity of human trimeric ARG2,"purified recombinant human IgG1, FIG. 3",inhibited
same,inhibition of the activity of human trimeric ARG2,"purified scFv, FIG. 2",inhibited
